Assay results as given in the supplement of paper PMC7125110.
± gives the standard error. This sample is rich in variants without activity.

B1: glmS ribozyme (parent)
chain: AUAAAAGCGCCAGAACUACAGAAAUGUAGUUGACGAGGAGGAGGUUUAUCGAAUUUUCGGCGGAUGCCUCCAAA

Key:
Settings in all cases: with glucosamine-6-phosphate
[1] = variants of: B1; experiment: self-cleavage kobs at 640 uM GlcN6P; higher = faster cleavage; RNA array
Summary of the method: (§1)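 Tiles of sequenced MiSeq chips were imaged over ~14 h at 37 °C. On them, barcoded ribozyme variants had been transcribed in situ by E. coli RNA polymerase and were tracked via a hybridised Cy3 probe while glucosamine-6-phosphate (40 μM to 10 mM) in HEPES/KCl/Mg(OAc)2 buffer flowed in. Per-tile medians, normalised to baseline and to non-cleaving reference variants, were fit to one- or two-exponential decays for kobs, and weighted Michaelis–Menten fits gave kcat and KM.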

[2] = variants of: B1; experiment: self-cleavage kobs at 160 uM GlcN6P; higher = faster cleavage; RNA array
Summary of the method: as §1

[3] = variants of: B1; experiment: self-cleavage kobs at 2500 uM GlcN6P; higher = faster cleavage; RNA array
Summary of the method: as §1

[4] = variants of: B1; experiment: self-cleavage kobs at 10000 uM GlcN6P; higher = faster cleavage; RNA array
Summary of the method: as §1

[5] = variants of: B1; experiment: self-cleavage kobs at 40 uM GlcN6P; higher = faster cleavage; RNA array
Summary of the method: as §1

G7A G43A
self-cleavage kobs at 640 uM GlcN6P [1]: < 1e-05 s⁻¹
self-cleavage kobs at 160 uM GlcN6P [2]: < 1e-05 s⁻¹
self-cleavage kobs at 2500 uM GlcN6P [3]: < 1e-05 s⁻¹
self-cleavage kobs at 10000 uM GlcN6P [4]: < 1e-05 s⁻¹

A6U A39U C50U U69A C70A
self-cleavage kobs at 640 uM GlcN6P [1]: < 1e-05 s⁻¹
self-cleavage kobs at 2500 uM GlcN6P [3]: < 1e-05 s⁻¹

A6C A53G
self-cleavage kobs at 640 uM GlcN6P [1]: 3.04e-05 ± 1.3e-05 s⁻¹

A6U U45G C67A
self-cleavage kobs at 640 uM GlcN6P [1]: < 1e-05 s⁻¹
self-cleavage kobs at 160 uM GlcN6P [2]: < 1e-05 s⁻¹

A6C U47C U54G
self-cleavage kobs at 640 uM GlcN6P [1]: < 1e-05 s⁻¹

G7C A52U A53G
self-cleavage kobs at 640 uM GlcN6P [1]: < 1e-05 s⁻¹
self-cleavage kobs at 2500 uM GlcN6P [3]: < 1e-05 s⁻¹

A6U A15G C19A A33C C68G
self-cleavage kobs at 640 uM GlcN6P [1]: < 1e-05 s⁻¹
self-cleavage kobs at 2500 uM GlcN6P [3]: < 1e-05 s⁻¹

G7C A39C G40C G44U
self-cleavage kobs at 640 uM GlcN6P [1]: < 1e-05 s⁻¹

A6G U45C A48G
self-cleavage kobs at 640 uM GlcN6P [1]: < 1e-05 s⁻¹
self-cleavage kobs at 160 uM GlcN6P [2]: < 1e-05 s⁻¹
self-cleavage kobs at 2500 uM GlcN6P [3]: < 1e-05 s⁻¹

A6C G32U A48G
self-cleavage kobs at 640 uM GlcN6P [1]: < 1e-05 s⁻¹
self-cleavage kobs at 160 uM GlcN6P [2]: < 1e-05 s⁻¹

G7C A12U U45C
self-cleavage kobs at 640 uM GlcN6P [1]: < 1e-05 s⁻¹
self-cleavage kobs at 160 uM GlcN6P [2]: < 1e-05 s⁻¹
self-cleavage kobs at 10000 uM GlcN6P [4]: < 1e-05 s⁻¹

A6U G35U G38C
self-cleavage kobs at 640 uM GlcN6P [1]: < 1e-05 s⁻¹
self-cleavage kobs at 2500 uM GlcN6P [3]: < 1e-05 s⁻¹
self-cleavage kobs at 10000 uM GlcN6P [4]: < 1e-05 s⁻¹

A6G C50G A52U G59U
self-cleavage kobs at 640 uM GlcN6P [1]: < 1e-05 s⁻¹

A6C U55G G60U G62C
self-cleavage kobs at 640 uM GlcN6P [1]: < 1e-05 s⁻¹
self-cleavage kobs at 160 uM GlcN6P [2]: < 1e-05 s⁻¹
self-cleavage kobs at 2500 uM GlcN6P [3]: < 1e-05 s⁻¹

A6G U31A A36G A48U
self-cleavage kobs at 640 uM GlcN6P [1]: < 1e-05 s⁻¹

A6G G41A U46G C67U
self-cleavage kobs at 640 uM GlcN6P [1]: < 1e-05 s⁻¹
self-cleavage kobs at 2500 uM GlcN6P [3]: < 1e-05 s⁻¹
self-cleavage kobs at 10000 uM GlcN6P [4]: < 1e-05 s⁻¹

A6U C50A G60A C70A
self-cleavage kobs at 640 uM GlcN6P [1]: 0.000136 ± 5e-05 s⁻¹

G7A G44C C50U
self-cleavage kobs at 640 uM GlcN6P [1]: < 1e-05 s⁻¹
self-cleavage kobs at 2500 uM GlcN6P [3]: < 1e-05 s⁻¹

G7A A15C G66A
self-cleavage kobs at 640 uM GlcN6P [1]: < 1e-05 s⁻¹
self-cleavage kobs at 160 uM GlcN6P [2]: < 1e-05 s⁻¹
self-cleavage kobs at 2500 uM GlcN6P [3]: < 1e-05 s⁻¹

G7C A12U C71A
self-cleavage kobs at 640 uM GlcN6P [1]: < 1e-05 s⁻¹
self-cleavage kobs at 160 uM GlcN6P [2]: < 1e-05 s⁻¹
self-cleavage kobs at 2500 uM GlcN6P [3]: < 1e-05 s⁻¹

A6U C10G G35U G62U C70A
self-cleavage kobs at 640 uM GlcN6P [1]: < 1e-05 s⁻¹
self-cleavage kobs at 160 uM GlcN6P [2]: < 1e-05 s⁻¹

A6C G7U A33U G43A U65C
self-cleavage kobs at 640 uM GlcN6P [1]: < 1e-05 s⁻¹

C68A C70U
self-cleavage kobs at 40 uM GlcN6P [5]: < 1e-05 s⁻¹

G7A A42U U49A
self-cleavage kobs at 640 uM GlcN6P [1]: < 1e-05 s⁻¹
self-cleavage kobs at 2500 uM GlcN6P [3]: < 1e-05 s⁻¹
self-cleavage kobs at 10000 uM GlcN6P [4]: < 1e-05 s⁻¹

A64U C70G
self-cleavage kobs at 40 uM GlcN6P [5]: < 1e-05 s⁻¹

A6G A64C C71U
self-cleavage kobs at 640 uM GlcN6P [1]: < 1e-05 s⁻¹
self-cleavage kobs at 160 uM GlcN6P [2]: < 1e-05 s⁻¹
self-cleavage kobs at 2500 uM GlcN6P [3]: < 1e-05 s⁻¹

A6C G43C U46A
self-cleavage kobs at 640 uM GlcN6P [1]: < 1e-05 s⁻¹

A6G A14G U49C U55G C67G
self-cleavage kobs at 640 uM GlcN6P [1]: < 1e-05 s⁻¹
self-cleavage kobs at 2500 uM GlcN6P [3]: < 1e-05 s⁻¹

A6G A39G A52G A53U
self-cleavage kobs at 640 uM GlcN6P [1]: < 1e-05 s⁻¹
self-cleavage kobs at 160 uM GlcN6P [2]: < 1e-05 s⁻¹

A6G C10G G37C G40C
self-cleavage kobs at 640 uM GlcN6P [1]: < 1e-05 s⁻¹
self-cleavage kobs at 2500 uM GlcN6P [3]: < 1e-05 s⁻¹

A6C C16U A33C G41A C58A
self-cleavage kobs at 640 uM GlcN6P [1]: < 1e-05 s⁻¹

U69A
self-cleavage kobs at 40 uM GlcN6P [5]: 0.000341 ± 7.7e-05 s⁻¹
self-cleavage kobs at 640 uM GlcN6P [1]: 0.000282 ± 3.1e-05 s⁻¹
self-cleavage kobs at 160 uM GlcN6P [2]: 0.000534 ± 0.00018 s⁻¹
self-cleavage kobs at 2500 uM GlcN6P [3]: 0.00219 ± 0.0004 s⁻¹
self-cleavage kobs at 10000 uM GlcN6P [4]: 0.000299 ± 4.6e-05 s⁻¹

U69G
self-cleavage kobs at 40 uM GlcN6P [5]: 0.000371 ± 0.00012 s⁻¹
self-cleavage kobs at 640 uM GlcN6P [1]: 0.000488 ± 0.00012 s⁻¹
self-cleavage kobs at 160 uM GlcN6P [2]: 5.87e-05 ± 2.4e-06 s⁻¹

A6C A14G C67U C70A
self-cleavage kobs at 640 uM GlcN6P [1]: < 1e-05 s⁻¹
self-cleavage kobs at 2500 uM GlcN6P [3]: < 1e-05 s⁻¹

A6U C16U G40U C67A
self-cleavage kobs at 640 uM GlcN6P [1]: < 1e-05 s⁻¹
self-cleavage kobs at 2500 uM GlcN6P [3]: < 1e-05 s⁻¹

A6G C8U C58A
self-cleavage kobs at 640 uM GlcN6P [1]: < 1e-05 s⁻¹

G7A C10A G38C U55A G59A G60A C61G U69A
self-cleavage kobs at 640 uM GlcN6P [1]: < 1e-05 s⁻¹

A6G A14C G38U
self-cleavage kobs at 640 uM GlcN6P [1]: < 1e-05 s⁻¹
self-cleavage kobs at 10000 uM GlcN6P [4]: < 1e-05 s⁻¹

G7A U54A U57A U65A
self-cleavage kobs at 640 uM GlcN6P [1]: < 1e-05 s⁻¹

G7C A15G U30G
self-cleavage kobs at 640 uM GlcN6P [1]: < 1e-05 s⁻¹
self-cleavage kobs at 10000 uM GlcN6P [4]: < 1e-05 s⁻¹

G7C A12G U46G U47A
self-cleavage kobs at 640 uM GlcN6P [1]: < 1e-05 s⁻¹

A6G U30G A36C
self-cleavage kobs at 640 uM GlcN6P [1]: < 1e-05 s⁻¹
self-cleavage kobs at 2500 uM GlcN6P [3]: < 1e-05 s⁻¹

A6U G60A
self-cleavage kobs at 640 uM GlcN6P [1]: < 1e-05 s⁻¹

A6U G60U
self-cleavage kobs at 640 uM GlcN6P [1]: < 1e-05 s⁻¹
self-cleavage kobs at 160 uM GlcN6P [2]: < 1e-05 s⁻¹
self-cleavage kobs at 2500 uM GlcN6P [3]: < 1e-05 s⁻¹

G7C A42U A48C G62U
self-cleavage kobs at 640 uM GlcN6P [1]: < 1e-05 s⁻¹

A6G G35C A39U
self-cleavage kobs at 640 uM GlcN6P [1]: < 1e-05 s⁻¹
self-cleavage kobs at 2500 uM GlcN6P [3]: < 1e-05 s⁻¹

G7C A15C A36G G38C A42C
self-cleavage kobs at 640 uM GlcN6P [1]: < 1e-05 s⁻¹

A6U C71G
self-cleavage kobs at 640 uM GlcN6P [1]: 5.72e-05 ± 1.3e-05 s⁻¹
self-cleavage kobs at 2500 uM GlcN6P [3]: 2.85e-05 ± 1e-05 s⁻¹
self-cleavage kobs at 10000 uM GlcN6P [4]: 2.69e-05 ± 8e-06 s⁻¹

A6G G35U U55G G63C
self-cleavage kobs at 640 uM GlcN6P [1]: < 1e-05 s⁻¹

A6C G38A G41U
self-cleavage kobs at 640 uM GlcN6P [1]: < 1e-05 s⁻¹
self-cleavage kobs at 160 uM GlcN6P [2]: < 1e-05 s⁻¹
self-cleavage kobs at 2500 uM GlcN6P [3]: < 1e-05 s⁻¹

A6G G29C G35U A42C C58G C68G
self-cleavage kobs at 640 uM GlcN6P [1]: < 1e-05 s⁻¹

G7A C11A G43C G59A
self-cleavage kobs at 640 uM GlcN6P [1]: < 1e-05 s⁻¹
self-cleavage kobs at 160 uM GlcN6P [2]: < 1e-05 s⁻¹
self-cleavage kobs at 2500 uM GlcN6P [3]: < 1e-05 s⁻¹

A6C C8G G38U A39G
self-cleavage kobs at 640 uM GlcN6P [1]: < 1e-05 s⁻¹

C68U U69G C71A
self-cleavage kobs at 40 uM GlcN6P [5]: < 1e-05 s⁻¹

A6U G9U G63U
self-cleavage kobs at 640 uM GlcN6P [1]: < 1e-05 s⁻¹

C70G
self-cleavage kobs at 40 uM GlcN6P [5]: 0.000246 ± 5.2e-05 s⁻¹

A6U C11U A33C U47C U65A
self-cleavage kobs at 640 uM GlcN6P [1]: < 1e-05 s⁻¹
self-cleavage kobs at 10000 uM GlcN6P [4]: < 1e-05 s⁻¹

A6G C8G U30G U31C G44A U54G
self-cleavage kobs at 640 uM GlcN6P [1]: < 1e-05 s⁻¹
self-cleavage kobs at 160 uM GlcN6P [2]: < 1e-05 s⁻¹

A6G G21A G41A A64U G66C
self-cleavage kobs at 640 uM GlcN6P [1]: < 1e-05 s⁻¹

A6C A36G A42U
self-cleavage kobs at 640 uM GlcN6P [1]: < 1e-05 s⁻¹
self-cleavage kobs at 2500 uM GlcN6P [3]: < 1e-05 s⁻¹

G7C A14U G29A G32A G66C
self-cleavage kobs at 640 uM GlcN6P [1]: < 1e-05 s⁻¹

A6C A14U U31C G40U C50U C70U
self-cleavage kobs at 640 uM GlcN6P [1]: < 1e-05 s⁻¹
